Measurements published in publication PMC4336329 (PLoS ONE, 2015).
About 14,000 (4.5%) of roughly 310,000 compounds showed an effect of 50% or more. The effect is printed as a negative number. This is one part of the list.

Biological target: human ether-à-go-go-related gene (hERG) potassium channel (human, UniProt Q12809)
Assay: primary screen, population patch clamp on CHO cells stably expressing hERG
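Further: peak tail current of the secondary pulse compared with the same well before compound.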

Sequence of human ether-à-go-go-related gene (hERG) potassium channel (Q12809 whole entry, looked up): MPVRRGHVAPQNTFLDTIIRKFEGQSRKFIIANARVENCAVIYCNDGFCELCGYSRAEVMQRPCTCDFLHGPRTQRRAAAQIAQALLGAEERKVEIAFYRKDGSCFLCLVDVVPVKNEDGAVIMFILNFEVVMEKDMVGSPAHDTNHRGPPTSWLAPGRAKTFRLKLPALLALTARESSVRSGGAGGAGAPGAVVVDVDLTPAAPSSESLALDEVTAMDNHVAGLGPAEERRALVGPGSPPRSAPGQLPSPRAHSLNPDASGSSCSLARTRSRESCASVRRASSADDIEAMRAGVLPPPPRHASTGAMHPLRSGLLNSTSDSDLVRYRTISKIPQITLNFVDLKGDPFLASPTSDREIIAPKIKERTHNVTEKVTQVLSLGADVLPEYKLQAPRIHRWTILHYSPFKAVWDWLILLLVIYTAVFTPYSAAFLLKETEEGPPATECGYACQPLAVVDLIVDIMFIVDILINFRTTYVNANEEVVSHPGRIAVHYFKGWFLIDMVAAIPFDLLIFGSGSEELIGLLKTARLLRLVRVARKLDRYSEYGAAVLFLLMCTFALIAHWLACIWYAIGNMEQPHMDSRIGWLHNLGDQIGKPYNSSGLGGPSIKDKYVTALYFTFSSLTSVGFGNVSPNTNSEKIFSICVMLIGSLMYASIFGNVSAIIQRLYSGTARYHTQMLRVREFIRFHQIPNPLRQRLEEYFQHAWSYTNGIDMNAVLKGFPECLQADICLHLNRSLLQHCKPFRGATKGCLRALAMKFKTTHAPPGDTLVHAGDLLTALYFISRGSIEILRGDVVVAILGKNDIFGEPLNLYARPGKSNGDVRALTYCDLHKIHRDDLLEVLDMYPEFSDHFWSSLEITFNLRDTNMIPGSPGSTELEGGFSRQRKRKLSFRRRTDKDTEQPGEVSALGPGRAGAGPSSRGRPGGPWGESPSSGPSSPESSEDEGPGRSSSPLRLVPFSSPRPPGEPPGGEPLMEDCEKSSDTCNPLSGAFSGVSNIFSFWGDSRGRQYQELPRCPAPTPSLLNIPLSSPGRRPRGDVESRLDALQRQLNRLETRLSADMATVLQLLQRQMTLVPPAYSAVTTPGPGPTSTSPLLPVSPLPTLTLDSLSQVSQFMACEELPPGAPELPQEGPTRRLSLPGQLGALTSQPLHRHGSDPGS

Point of comparison: `O=C(COc1ncnc2ccccc12)Nc1cc(S(=O)(=O)N2CCOCC2)ccc1Cl`, “hERG current change (%, negative = inhibition) at 10uM” value 6.64%. Against it:
- O=C(COC(=O)C1=Cc2ccccc2OC1)NCc1ccco1 — higher, 31.1%
- CC(C)Nc1nc(NC(C)C)nc(SCC(N)=O)n1 — lower, 1.67%
- CCOC(=O)C1=C2NC(=O)c3ccccc3N2C(=O)C1 — lower, -0.753%
- O=C(NCc1ccc2c(c1)OCO2)C1CC(=O)N(c2ccc(O)cc2)C1 (stereo not drawn) — lower, -11.5%
- C/C(=C\c1ccccc1)CN1CCC(C(=O)N2CCCCC2)CC1.O=C(O)C(=O)O — lower, -47.5%
- CCC(CC)NC(=O)c1cccc(Oc2ccccc2)c1 — lower, -11.6%
- CC(NC(=O)c1ccc(F)cc1)C1CC2CCC1C2 (stereo not drawn) — lower, -0.921%
- COC(=O)c1sccc1S(=O)(=O)Nc1ccc(N2CCCCC2)cc1 — higher, 17.2%
- CCOC(=O)C1(Cc2ccccc2C)CCCN(Cc2cc(OC)c(O)c(OC)c2)C1 (stereo not drawn) — lower, -39.7%
- COc1ccc(-n2nnc3c(SC(C(C)=O)C(=O)N(C)C)ncnc32)cc1 (stereo not drawn) — lower, -12.8%
- CN1CCC(Oc2ccc(Sc3ccccc3)cc2)CC1.Cl — lower, -67%
- COc1ccc(CNS(=O)(=O)c2ccc3c(c2)CC(C)N3C(=O)C2CC2)cc1 (stereo not drawn) — higher, 22.1%
- Cc1ccc(S(=O)(=O)Nc2nccs2)cc1[N+](=O)[O-] — higher, 20.7%
- CCCN1CCN(CCCNC(=O)Cn2nc(-c3ccc(Cl)cc3)ccc2=O)CC1 — lower, -50.8%
- O=C(CN1CCC(n2nnc3cc(F)ccc32)CC1)N1CCc2ccccc2C1 — lower, -58.1%
- Cn1c(=O)n(C)c2cc(NC(=O)COc3ccc(F)cc3F)ccc21 — lower, -13.6%
- CC(=O)NO — higher, 12.3%
- O=C(O)c1ccc(-c2ccc(Cl)cc2Cl)o1 — lower, -3.71%
- Cc1cc(-c2ccc(/C=N/n3cnnc3)o2)c([N+](=O)[O-])cc1C — lower, -9.52%
- O=C(O)c1ccccc1-n1ncc2c1/C(=C/c1ccc(Cl)cc1)CC2 — higher, 14.9%
- Cc1cccc(C)c1OC1(c2ccccc2)OC(=O)c2ccccc21 (stereo not drawn) — higher, 10.9%
- O=C(c1ccco1)c1cn(Cc2ccccc2)c2ccccc12 — lower, -6.75%
- O=S(=O)(Nc1ncnc2sc3c(c12)CCC3)c1ccc(Cl)s1 — higher, 12%
- CN1CCC(N(C)S(=O)(=O)c2ccc(NC(=O)COc3ccc(F)cc3)cc2)CC1 — lower, 0.996%
- Cc1ccc(S(=O)(=O)Nc2nc(C)cc(N/N=C/c3ccc(O)cc3)n2)cc1 — higher, 16.1%
- Cc1ccc(C2(c3ccc(C)cc3)CC2C(=O)NC(C)C)cc1 (stereo not drawn) — higher, 12.4%
- CCn1c(SCC(=O)NC2CCCCC2)nnc1-c1cccs1 — lower, 4.45%
- Cc1ccc(C(=O)N2c3ccccc3NC(=O)C2C)cc1 (stereo not drawn) — lower, 0.849%
- Cc1cc(=O)n2[nH]nnc2n1 — lower, -14.4%
- CC1CCC2(CC1)NC(=O)N(CC(=O)N1CCN(S(=O)(=O)c3ccccc3)CC1)C2=O (stereo not drawn) — lower, -19.3%
- CN1C(=O)C(C)(C)N(C(=O)c2cccc([N+](=O)[O-])c2)c2ccccc21 — lower, -2.83%
- COc1ccc(S(=O)(=O)N2CCOC2CNC(=O)C(=O)NCCc2ccccc2)cc1 (stereo not drawn) — lower, -18.3%
- O=C(CCCn1c(=O)c2ccccc2n(Cc2cccc(F)c2)c1=O)NC1CCN(Cc2ccccc2)CC1 — lower, -68.6%
- CN(Cc1nc2c(s1)CCCC2)C(=O)CCc1nnc(-c2ccc3c(c2)OCO3)o1 — higher, 8.42%
- c1cncc(-c2noc(-c3ccc4ccccc4c3)n2)c1 — higher, 19.3%
- c1ccc2c(SCc3cn4ccccc4n3)nncc2c1 — lower, -34.4%
- Cc1c(C(=O)OCCOC(C)C)[nH]c2c1C(=O)CC(c1ccco1)C2 (stereo not drawn) — lower, -18.3%
- Cc1cccc(C)c1N1CCN(C(=O)N2CCCCC2)CC1 — higher, 15.1%
- COC(=O)c1cn(NC(=O)COc2ccc(Cl)cc2)c(=O)c2ccccc12 — lower, 1.74%
- COC(=O)c1cccc(NC(=O)CSc2nnc(COc3cccc(C)c3)n2C)c1 — lower, -1.42%
- CCOC(=O)c1c(C)[nH]c(C)c1C(=O)CSc1nc2ccccc2c(=O)n1-c1ccc(C)cc1 — higher, 11.9%
- S=C1NC2(CCCCC2)Cc2ccccc21 — higher, 12.4%
- CC(=O)c1cc2c(cc1N(C(=O)Cn1nnc3ccccc31)C(C(=O)NCCC(C)C)c1cccnc1)OCO2 (stereo not drawn) — higher, 8.92%
- NS(=O)(=O)c1ccc(Nc2nc3ccccc3nc2NS(=O)(=O)c2cccc([N+](=O)[O-])c2)cc1 — higher, 10.8%
